PubChem BioAssay AID488969 (Vanderbilt High Throughput Screening Facility, 2010)
The full ranking holds about 110,000 compounds; the median of “z-score” is about -0.1, and the highest 2% start at about 2. The list shows a part of the results. Active and inactive are the calls of the source.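 How the source made its calls: active means z-score in the third read window above 3 or below -3; inactive means the rest.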

Biological target: Metabotropic glutamate receptor 8 (Rattus norvegicus) (UniProt P70579)
Assay: rat mGluR8 modulators via GIRK flux, primary screen, cell-based, thallium flux, HTS (AID 488969)
Conditions: HEK293 rat mGluR8, GIRK (G protein-gated inwardly rectifying potassium channel) thallium flux, FluoZin2; at 10 µM; stronger effect = higher value; submaximal glutamate (EC20) added with thallium

UniProt P70579, sequence (P70579 whole entry, looked up): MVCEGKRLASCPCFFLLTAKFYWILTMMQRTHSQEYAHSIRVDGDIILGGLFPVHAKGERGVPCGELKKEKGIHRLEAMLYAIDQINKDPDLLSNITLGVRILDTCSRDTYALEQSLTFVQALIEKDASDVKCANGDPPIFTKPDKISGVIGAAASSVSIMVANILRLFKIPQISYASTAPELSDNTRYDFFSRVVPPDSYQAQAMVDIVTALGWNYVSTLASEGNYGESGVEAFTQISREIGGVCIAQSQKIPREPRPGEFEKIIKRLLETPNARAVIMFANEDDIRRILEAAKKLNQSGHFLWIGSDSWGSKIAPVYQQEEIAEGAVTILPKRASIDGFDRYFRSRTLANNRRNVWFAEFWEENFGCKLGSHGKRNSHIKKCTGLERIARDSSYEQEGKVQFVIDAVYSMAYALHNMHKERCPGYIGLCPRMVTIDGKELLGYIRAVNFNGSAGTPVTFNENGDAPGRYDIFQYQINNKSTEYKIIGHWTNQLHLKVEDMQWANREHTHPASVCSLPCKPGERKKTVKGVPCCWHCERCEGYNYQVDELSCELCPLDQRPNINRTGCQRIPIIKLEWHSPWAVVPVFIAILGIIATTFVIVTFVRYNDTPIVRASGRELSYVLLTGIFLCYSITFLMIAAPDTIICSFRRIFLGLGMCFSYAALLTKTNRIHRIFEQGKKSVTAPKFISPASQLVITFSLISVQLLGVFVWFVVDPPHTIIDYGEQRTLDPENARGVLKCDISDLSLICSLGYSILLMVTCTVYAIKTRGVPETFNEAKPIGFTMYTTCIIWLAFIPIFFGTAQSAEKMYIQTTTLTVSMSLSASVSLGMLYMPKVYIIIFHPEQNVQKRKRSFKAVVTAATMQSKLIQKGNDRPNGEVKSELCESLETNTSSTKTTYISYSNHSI

Row | SMILES | z-score
1 | Cc1c(/C=N/NC(=O)CNc2ccccc2)c2ccccn2c1C(=O)c1ccccc1 | -0.111
2 | c1ccc(-n2c(-c3ccco3)nnc2-c2ccco2)cc1 | -0.236
3 | C#CCSc1nc(Cc2ccc(Cl)cc2)nc2ccccc12 | 0.192
4 | CCn1c(C)nc2cc(C(=O)NNS(=O)(=O)c3ccccc3F)ccc21 | -0.0906
5 | CC(C)NC(=O)NC(=O)CSc1ccccc1F | -0.389
6 | COc1ccc(Cn2c(=O)sc3ccccc32)cc1OC | 0.671
7 | O=C(COc1ccc(Cl)cc1)Nc1ccc(C(=O)NCc2cccnc2)cc1 | 0.0017
8 | COc1cccc(OC)c1C(=O)N1CCN(Cc2ccccc2C)CC1 | -0.301
9 | Cc1nc2ccc(F)cc2cc1C(=O)NCC1CCCO1 (stereo unspecified) | 0.0248
10 | CCOC(=O)c1[nH]c(C)c(C(=O)NCCC2=CCCCC2)c1C | 0.232
11 | O=c1oc2c(Cl)cc(Cl)cc2cc1-c1nnc(Nc2ccccc2F)s1 | 1.37
12 | O=C(O)c1cc([N+](=O)[O-])ccc1NCCO | -0.0386
13 | O=S(=O)(Cc1ccccc1)N1CCn2c(nc3ccccc32)C1 | -0.011
14 | COc1cc(S(=O)(=O)Nc2cccc(C)c2)ccc1NC(=O)c1cccnc1 | -0.162
15 | CC(=O)Nc1ccc(Cl)c(C(N)=O)c1 | 0.465
16 | COc1ccc(/C=N/OCC(=O)N2CC3(C)CC2CC(C)(C)C3)cc1OC (stereo unspecified) | -0.15
17 | CC(C)N(C(=O)C(=O)c1cccn1-c1ccccc1C#N)C(C)C | -0.388
18 | COc1ccc(C(N)=O)cc1NC(=O)CC(O)(C(F)(F)F)C(F)(F)F | 0.121
19 | Cc1onc(-c2c(F)cccc2Cl)c1C(=O)N1CCN(S(C)(=O)=O)CC1 | 0.0327

Row | SMILES | z-score
20 | CCCn1nnc(NC(=O)c2ccc(Br)o2)n1 | 0.168
21 | COc1cccc(OCC(O)CN2CCC(C)CC2)c1 (stereo unspecified) | 0.67
22 | CC1CCN(c2nc3c(c(=O)n(C)c(=O)n3C)n2Cc2ccccc2)CC1 | -0.782
23 | O=C(Cn1cnc2c(nnn2Cc2ccc(Cl)cc2)c1=O)N1CCCc2ccccc21 | 0.0655
24 | CC1CC(C)CN(C2CCN(Cc3cccnc3)CC2)C1 (stereo unspecified) | -0.0754
25 | CC1=CCC(C(=O)O)(C(=O)N/N=C/c2cccs2)C(c2ccc(Cl)cc2)C1 (stereo unspecified) | -0.83
26 | CN(C(=O)COc1ccc(C(C)(C)C)cc1)C1CCS(=O)(=O)C1 (stereo unspecified) | 0.162
27 | O=C(OCn1ncc(Cl)c(Cl)c1=O)c1ccccc1Cl | -1.56
28 | COc1cccc(NC(=O)c2nn(C34CC5CC(CC(C5)C3)C4)cc2[N+](=O)[O-])c1 | -0.196
29 | COCCNCCCOc1ccc(C(C)(C)c2ccccc2)cc1 | 0.645
30 | CCOc1cc(N2CCOCC2)c(OCC)cc1NC(C)C(=O)N1CCC(C)CC1 (stereo unspecified) | -0.233
31 | Cc1ccc(C)c(CSC2=NCCN2C(=O)Cc2ccc([N+](=O)[O-])cc2)c1 | 0.0861
32 | O=C(OCc1nc2ccccc2s1)c1cccs1 | 0.852
33 | CCC(=O)n1nc(-c2ccc(Cl)cc2)nc1SC | -0.569
34 | CCOC(=O)CSc1nc2cc(C(=O)N3CCC(C(N)=O)CC3)ccc2c(=O)n1-c1ccccc1 | 0.0521
35 | COc1ccc(OC)c(C2C(C(=O)c3cccs3)=C(O)C(=O)N2CCN(C)C)c1 (stereo unspecified) | -0.00245
36 | COc1cccc(CNC(=O)C2CCN(S(=O)(=O)c3c(C)nn(C)c3C)CC2)c1 | 0.519
37 | CN(C)c1cccc(C(=O)Nc2ccc3nc4n(c(=O)c3c2)CCCCC4)c1 | -0.303
38 | CCCCNC(=S)NNC(=O)c1csc(C)c1 | 1.2

Row | SMILES | z-score
39 | COc1ccc(OC)c(S(=O)(=O)N(C)CC(=O)N2CCN(c3ccccc3)CC2)c1 | 0.343
40 | S=C1NCCc2ccc(Cl)cc2C1c1ccccc1Cl (stereo unspecified) | 0.569
41 | CCOC(=O)N1CCC(NC(=O)C2CCCN(S(=O)(=O)c3ccc4c(c3)oc(=O)n4C)C2)CC1 (stereo unspecified) | 0.0912
42 | O=C(O)C1CC(=O)N(CCc2ccccc2)C1 (stereo unspecified) | -0.225
43 | CCOC(=O)N1CCN(C(=O)CSc2ncnc3ccccc23)CC1 | active: 3.04
44 | COc1cccc(-c2nn(-c3ccccc3)cc2C(=O)O)c1 | -0.155
45 | Cc1ccc(-n2c(C(C)n3nc(C)c([N+](=O)[O-])c3C)n[nH]c2=S)cc1 (stereo unspecified) | -0.127
46 | COCCCNS(=O)(=O)c1ccc(SC)cc1 | -0.232
47 | Cc1ccc(C(=O)CSc2ncn[nH]2)cc1 | -0.306
48 | CC(=O)NCCn1ccc2ccccc21 | -0.0333
49 | COc1cc(/C=N/NC(N)=O)ccc1OC(=O)c1ccc(C)cc1 | 0.133
50 | CCOc1ccc(-c2nc(CSc3nncs3)cs2)cc1OC | -1.16
51 | Cc1nn(-c2ccccc2)c(Cl)c1C(=O)Nc1ccccc1 | -0.165
52 | Nc1ccc2nc(CN3CCOCC3)[nH]c2c1 | -0.0601
53 | CCOC(=O)c1ccc(NC(=S)N2CCN(S(C)(=O)=O)CC2)cc1 | -0.4
54 | Cc1cc(C2C(C#N)=C(N)OC3=C2C(=O)CC(C)(C)C3)c(C)s1 (stereo unspecified) | 0.586
55 | O=C(CSCc1ccccc1)Nc1cccc(C(=O)Nc2ccc(C(=O)O)cc2)c1 | -0.231
56 | CC(=O)NC1(C(F)(F)F)NC(=O)N(C2CCCCC2)C1=O (stereo unspecified) | -0.137
